Data taken from PMC8260879, “A cancer mutation promotes EphA4 oligomerization and signaling by altering the conformation of the SAM domain” (The Journal of Biological Chemistry, 2021).

B1: EphA4 L920F mutant fused to C-terminal mTURQ or EYFP (receptor, human)
chain: [letters of about 200 residues left out]NLAQFPDTITGADTSSLVEVRGSCVNNSEEKDVPKMYCGADGEWLVPIGNCLCNAGHEERSGECQACKIGYYKALSTDATCAKCPPHSYSVWEGATSCTCDRGFFRADNDAASMPC[letters of about 200 residues left out]VLLVSVSGSVVLVVILIAAFVISRRRSKYSKAKQEADEEKHLNQGVRTYVDPFTYEDPNQAVREFAKEIDASCIKIEKVIGVGEFGEVCSGRLKVPGKREICVAIKTLKAGYTDKQRRDFLSEASIMGQFDHPNIIHLEGVVTKCKPVMIITEYMENGSLDAFLRKNDGRFTVIQLVGMLRGIGSGMKYLSDMSYVHRDLAARNILVNSNLVCKVSDFGMSRVLEDDPEAAYTTRGGKIPIRWTAPEAIAYRKFTSASDVWSYGIVMWEVMSYGERPYWDMSNQDVIKAIEEGYRLPPPMDCPIALHQLMLDCWQKERSDRPKFGQIVNMLDKLIRNPNSLKRTGTESSRPNTALLDPSSPEFSAVVSVGDWFQAIKMDRYKDNFTAAGYTTLEAVVHVNQEDLARIGITAITHQNKILSSVQAMRTQMQQMHGRMVPV
notes: EphA4, human, cDNA GenBank NM_001304536.2, with the melanoma mutation L920F; source: HEK293T, transiently cotransfected, in the plasma membrane of live cells; not shown: mTURQ via a (GGS)5 linker (on one copy), C-terminal, kept; EYFP via a (GGS)5 linker (on the other copy), C-terminal, kept
B2: EphA4 H945E mutant fused to C-terminal mTURQ or EYFP (receptor, human)
chain: [letters of about 200 residues left out]NLAQFPDTITGADTSSLVEVRGSCVNNSEEKDVPKMYCGADGEWLVPIGNCLCNAGHEERSGECQACKIGYYKALSTDATCAKCPPHSYSVWEGATSCTCDRGFFRADNDAASMPC[letters of about 200 residues left out]VLLVSVSGSVVLVVILIAAFVISRRRSKYSKAKQEADEEKHLNQGVRTYVDPFTYEDPNQAVREFAKEIDASCIKIEKVIGVGEFGEVCSGRLKVPGKREICVAIKTLKAGYTDKQRRDFLSEASIMGQFDHPNIIHLEGVVTKCKPVMIITEYMENGSLDAFLRKNDGRFTVIQLVGMLRGIGSGMKYLSDMSYVHRDLAARNILVNSNLVCKVSDFGMSRVLEDDPEAAYTTRGGKIPIRWTAPEAIAYRKFTSASDVWSYGIVMWEVMSYGERPYWDMSNQDVIKAIEEGYRLPPPMDCPIALHQLMLDCWQKERSDRPKFGQIVNMLDKLIRNPNSLKRTGTESSRPNTALLDPSSPEFSAVVSVGDWLQAIKMDRYKDNFTAAGYTTLEAVVEVNQEDLARIGITAITHQNKILSSVQAMRTQMQQMHGRMVPV
notes: EphA4, human, cDNA GenBank NM_001304536.2, with H945E; source: HEK293T, transiently cotransfected, in the plasma membrane of live cells; not shown: mTURQ via a (GGS)5 linker (on one copy), C-terminal, kept; EYFP via a (GGS)5 linker (on the other copy), C-terminal, kept
B3: EphA4 L920F-H945E double mutant fused to C-terminal mTURQ or EYFP (receptor, human)
chain: [letters of about 200 residues left out]NLAQFPDTITGADTSSLVEVRGSCVNNSEEKDVPKMYCGADGEWLVPIGNCLCNAGHEERSGECQACKIGYYKALSTDATCAKCPPHSYSVWEGATSCTCDRGFFRADNDAASMPC[letters of about 200 residues left out]VLLVSVSGSVVLVVILIAAFVISRRRSKYSKAKQEADEEKHLNQGVRTYVDPFTYEDPNQAVREFAKEIDASCIKIEKVIGVGEFGEVCSGRLKVPGKREICVAIKTLKAGYTDKQRRDFLSEASIMGQFDHPNIIHLEGVVTKCKPVMIITEYMENGSLDAFLRKNDGRFTVIQLVGMLRGIGSGMKYLSDMSYVHRDLAARNILVNSNLVCKVSDFGMSRVLEDDPEAAYTTRGGKIPIRWTAPEAIAYRKFTSASDVWSYGIVMWEVMSYGERPYWDMSNQDVIKAIEEGYRLPPPMDCPIALHQLMLDCWQKERSDRPKFGQIVNMLDKLIRNPNSLKRTGTESSRPNTALLDPSSPEFSAVVSVGDWFQAIKMDRYKDNFTAAGYTTLEAVVEVNQEDLARIGITAITHQNKILSSVQAMRTQMQQMHGRMVPV
notes: EphA4, human, cDNA GenBank NM_001304536.2, with L920F and H945E; source: HEK293T, transiently cotransfected, in the plasma membrane of live cells; not shown: mTURQ via a (GGS)5 linker (on one copy), C-terminal, kept; EYFP via a (GGS)5 linker (on the other copy), C-terminal, kept
B4: EphA2 L913F mutant tagged with mTURQ or EYFP (receptor, human)
chain: [letters of about 500 residues left out]IGGVAVGVVLLLVLAGVGFFIHRRRKNQRARQSPEDVYFSKSEQLKPLKTYVDPHTYEDPNQAVLKFTTEIHPSCVTRQKVIGAGEFGEVYKGMLKTSSGKKEVPVAIKTLKAGYTEKQRVDFLGEAGIMGQFSHHNIIRLEGVISKYKPMMIITEYMENGALDKFLREKDGEFSVLQLVGMLRGIAAGMKYLANMNYVHRDLAARNILVNSNLVCKVSDFGLSRVLEDDPEATYTTSGGKIPIRWTAPEAISYRKFTSASDVWSFGIVMWEVMTYGERPYWELSNHEVMKAINDGFRLPTPMDCPSAIYQLMMQCWQQERARRPKFADIVSILDKLIRAPDSLKTLADFDPRVSIRLPSTSGSEGVPFRTVSEWFESIKMQQYTEHFMAAGYTAIEKVVQMTNDDIKRIGVRLPGHQKRIAYSLLGLKDQVNTVGIPI
notes: EphA2, human, cDNA GenBank NM_004431.5, with L913F (the residue that corresponds to L920 of EphA4); also called EphA2 L913F-mTURQ; EphA2 L913F-EYFP; source: HEK293T, transiently cotransfected, in the plasma membrane of live cells
B5: EphA4 ΔSAM mutant (lacking […]) fused to C-terminal mTURQ or EYFP (receptor, human)
chain: [letters of about 200 residues left out]NLAQFPDTITGADTSSLVEVRGSCVNNSEEKDVPKMYCGADGEWLVPIGNCLCNAGHEERSGECQACKIGYYKALSTDATCAKCPPHSYSVWEGATSCTCDRGFFRADNDAASMPC[letters of about 200 residues left out]VLLVSVSGSVVLVVILIAAFVISRRRSKYSKAKQEADEEKHLNQGVRTYVDPFTYEDPNQAVREFAKEIDASCIKIEKVIGVGEFGEVCSGRLKVPGKREICVAIKTLKAGYTDKQRRDFLSEASIMGQFDHPNIIHLEGVVTKCKPVMIITEYMENGSLDAFLRKNDGRFTVIQLVGMLRGIGSGMKYLSDMSYVHRDLAARNILVNSNLVCKVSDFGMSRVLEDDPEAAYTTRGGKIPIRWTAPEAIAYRKFTSASDVWSYGIVMWEVMSYGERPYWDMSNQDVIKAIEEGYRLPPPMDCPIALHQLMLDCWQKERSDRPKFGQIVNMLDKLIRNPNSLKRTGTESSRPNTALLDPSSPEVPV
notes: EphA4, human, cDNA GenBank NM_001304536.2, lacking […], corresponding to the SAM domain; source: HEK293T, transiently cotransfected, in the plasma membrane of live cells; not shown: mTURQ (on one copy), C-terminal, kept; EYFP (on the other copy), C-terminal, kept

Legend:
[1] = target: the molecule itself; experiment: FRET or BRET; FSI-FRET as without ligand but with 0.5 μg/ml ephrinA5-Fc in the hypo-osmotic medium; monomer-trimer equilibrium; apparent dissociation constant = receptor concentration at 50% oligomeric fraction
[2] = target: the molecule itself; experiment: FRET or BRET; FSI-FRET of mTURQ- and EYFP-tagged receptor in the plasma membrane of live HEK293T cells, no ligand, hypo-osmotic medium; fit of a monomer-dimer equilibrium (Equation 2): dimer to monomers; constants in two-dimensional concentration
[3] = target: the molecule itself; experiment: FRET or BRET; FSI-FRET of mTURQ- and EYFP-tagged receptor in the plasma membrane of live HEK293T cells, no ligand, hypo-osmotic medium; fit of a monomer-trimer equilibrium (Equation 5); apparent dissociation constant = receptor concentration at which 50% of the receptors are in oligomers

Protein	stoichiometry N [2]	also measured
B1		stoichiometry N [1]: 3
B2	2	
B3		stoichiometry N [3]: 3
B4	2	
B5	2	
